Source: the supplement of paper PMC3334620
Over roughly 33,000 sequences, “E-score (-0.5 to 0.5)” has its median near -0.032; the highest 2% begin near 0.36. The list shows a part of the results.

molecular target: T1, Sko1 (UniProt Q02100); assay: PBM E-score (8-mer binding enrichment) (E-score (-0.5 to 0.5)); higher = stronger / more preferred TF binding; most listed sequences are background and not binding sites; conditions: protein concentration: 200 nM; construct: GST-full length
T1 sequence: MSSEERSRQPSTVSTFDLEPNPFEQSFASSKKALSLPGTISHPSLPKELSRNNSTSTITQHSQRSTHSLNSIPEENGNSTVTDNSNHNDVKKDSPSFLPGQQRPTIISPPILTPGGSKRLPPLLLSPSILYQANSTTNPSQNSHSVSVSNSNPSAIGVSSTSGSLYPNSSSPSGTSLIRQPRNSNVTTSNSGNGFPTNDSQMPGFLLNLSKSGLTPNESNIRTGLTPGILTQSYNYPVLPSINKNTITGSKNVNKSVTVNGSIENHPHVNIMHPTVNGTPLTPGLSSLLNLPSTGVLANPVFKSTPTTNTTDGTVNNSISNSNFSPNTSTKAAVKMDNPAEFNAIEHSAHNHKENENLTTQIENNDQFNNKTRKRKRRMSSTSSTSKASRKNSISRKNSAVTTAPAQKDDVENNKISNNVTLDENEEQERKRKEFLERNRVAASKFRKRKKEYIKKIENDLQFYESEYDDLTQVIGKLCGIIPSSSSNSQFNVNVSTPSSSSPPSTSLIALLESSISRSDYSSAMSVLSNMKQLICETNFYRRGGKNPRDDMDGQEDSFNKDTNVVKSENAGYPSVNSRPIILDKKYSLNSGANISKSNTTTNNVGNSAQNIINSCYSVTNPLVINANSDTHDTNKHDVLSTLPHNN
Procedure, shortened: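 Using PURExpress in vitro transcription/translation, GST-tagged yeast transcription factors were made in full-length or DNA-binding-domain form. These were applied at about 100-200 nM to double-stranded universal all-10-mer Agilent arrays, and bound protein was detected with fluorescent anti-GST. Scans were normalised with masliner before the Universal PBM Analysis Suite assigned E-scores to ungapped eight-base words pooled with their reverse complements.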

Sequence | PBM E-score
CTTTAGTC | -0.0749
ATGCCGCG | -0.169
CTAGACTA | -0.139
GCCAGTAC | -0.0903
CTAGGGGC | -0.347
CTTAAACA | -0.0247
GACTGGAC | -0.178
ACTACTGG | -0.148
ATCGAGGG | -0.228
CGCAACCC | 0.0124
CTGTCAGC | -0.218
ACAAATCC | 0.0159
CCGTAAGC | -0.0492
GGGTCATA | -0.0307
AACACGGG | -0.124
GTGGTCGA | -0.107
CCTCGCCA | -0.321
GGCGGCTA | -0.19
AGATCCTA | -0.136
AGACGCAC | 0.104
CCACGTGG | 0.177
CACCTTGA | -0.195
ACCCACGC | -0.0576
TTCGAGAA | 0.185
CCACGTGC | 0.341

Sequence | PBM E-score
GACTGGCC | -0.338
GCATCAAA | 0.128
AAGACTAC | -0.0828
CCCACTAC | 0.137
ATAGACTA | 0.0808
ATCCAAGC | -0.183
CATCTACA | 0.114
AAGCAAGT | -0.127
CCGAGTCG | -0.264
TAACGGCA | 0.0289
AACCTGCG | -0.229
ACACTCAC | -0.00305
ACTCTTAA | -0.0308
ACTCATGC | -0.0532
CGCTTTCC | -0.057
CAGCCAAA | -0.0839
AAGTGGTG | -0.113
GCCGAGAA | -0.198
AGTTTCTA | 0.116
CTTTCAGC | -0.164
CGGCTATA | 0.0503
AACCCCTT | -0.23
TCGATTAA | 0.208
AGTGCGCC | -0.171
CAAGCACC | -0.203

Sequence | PBM E-score
GACTCGAC | -0.225
CTTACCTA | 0.0888
CTCCAAAA | -0.0807
ACCACACG | 0.204
GCCTGGTA | -0.144
CATGGAGG | -0.298
CTAGCGCC | -0.0924
GGTCTAAC | -0.242
CACTACCA | -0.029
AAGTGTGC | -0.0238
GCTGTTAC | -0.11
AACCAACT | 0.0928
GTAGAGAC | -0.0355
ATTTGGTC | 0.122
ACATAACC | 0.0262
ACGCATCC | -0.00397
CAGCGTGG | -0.11
CCTTTTGA | 0.0971
GCGTACAA | 0.146
CACGGCTC | -0.184
ACTATGCG | -0.0229
CTCGCATC | -0.096
AGCATGAA | -0.0774
AATGGTCT | -0.125
ATGACCTC | 0.246

Sequence | PBM E-score
GGGCAAGA | -0.0518
ACTCAGCG | -0.3
GATTAGAA | -0.0981
CTTCAGAC | -0.144
CTATGTTA | -0.0223
CATGTACA | 0.0931
CCGTTTAC | -0.125
AACTGCGC | -0.0854
AGGGGAAA | -0.175
AATTGGCG | 0.242
CCGTGACG | 0.396
AAGATTTG | 0.079
CAACGTCC | -0.0395
GTAGCCAC | -0.062
GATGATGA | 0.259
ATTACTCC | 0.0425
AAGATTGT | 0.0296
GAGTAGGA | -0.281
AAGATATC | -0.00929
CAACTAGA | 0.115
CTATTTGC | 0.0444
CCTCGTTA | 0.0799
CTTATATA | 0.247
AAATTACA | 0.261
CGCACTTC | 0.0725

Sequence | PBM E-score
GCGGCTTA | -0.0704
GTCAAATA | 0.219
ACATCTTC | 0.0919
AAGAGGCT | -0.146
GGTCGGCA | -0.357
GATCGCGC | -0.00925
TCCCTAGA | -0.0439
CAACCTGA | -0.0685
CGTTCATA | 0.228
CACGATAA | 0.171
CATGCCGC | 0.196
ACCGTTAA | -0.0408
GAGTTTGA | 0.105
ACCTGGCC | -0.213
CATATACG | 0.347
ACGGAAAC | 0.047
AACAAGGA | 0.134
GGAGCTCC | -0.186
CCTGGGCG | -0.0762
ATTTATCG | 0.0247
CGAGTGCC | -0.181
CCTACCAG | -0.256
GCATACTA | -0.103
CCTAGCTA | -0.165
CCGGGTCA | -0.233

Sequence | PBM E-score
CAGAAAGA | 0.0743
CACATTTA | 0.0403
TGAAATCA | 0.174
CCCATTCA | -0.162
ACTTGAAA | 0.0359
ACCGATGA | 0.0788
ATACAACC | 0.0786
CGTTTGGC | -0.0178
AGGTTGTG | -0.0294
ATGGCCGC | -0.122
CACGTAGA | 0.39
CGACTAAC | 0.0121
GAACCCCA | -0.149
CCGATCTC | -0.302
CGGTACAG | -0.188
AGTGAATC | -0.0157
CGGTTAAG | -0.0415
AAGGACCT | -0.286
GAATCCCC | -0.347
CACATCCG | -0.0558
GCAAGAGC | -0.0717
CGATGACG | 0.482
GCCAGTCA | -0.26
ACTCAGTC | -0.156
AGCATAAT | 0.198

Sequence | PBM E-score
GCCCTCTA | -0.299
GCAGGGCA | -0.196
ACGCTCAG | -0.133
AAAACATG | 0.0449
CAGTTACA | 0.0781
GCGATTCA | -0.0266
AGCTGATC | -0.0352
CTCTCGAC | -0.164
AGATATCG | -0.0349
AGGGACCG | -0.358
CGACGGGA | -0.017
AGTAGTAA | 0.0694
CACTGTGA | 0.0204
CTCTTGAA | -0.0298
AATTAGAC | 0.191
AGGAGCGA | -0.244
ATTGGTCA | -0.131
ATCCGGCA | -0.246
ATGACTAG | 0.0773
ATCATCGA | 0.2
TACGCAAA | 0.415
ATAGAACG | 0.226
AGTCGAGA | 0.0118
AAAGGCAG | -0.106
TAGTGGCA | -0.0635

Sequence | PBM E-score
TCAACGGA | 0.0523
CAACGATC | -0.121
CTACGTAA | 0.489
ATGCCTGC | -0.175
CATACAGA | 0.144
ATGGAGGC | -0.247
AAGTTCGA | 0.006
GCCGTCAA | -0.081
CGAGCTTA | 0.0357
CCTGATCC | -0.263
AAGCTTGT | 0.0822
CTTCTGCC | -0.11
GTTTGGCA | 0.051
AGCGACAA | 0.0454
AAGGTTTG | 0.124
TATGGCAA | -0.0424
CCTATCTC | -0.0534
GACGGCTC | -0.301
CTGGAGCA | -0.176
AAATACCC | -0.0735
GCAAAGCA | 0.0107
GCTCGGCC | -0.295
AGGGCTCA | -0.375
CTCCCGTC | 0.0312
ACAGTACT | -0.0322

Sequence | PBM E-score
AATCGGGA | -0.0793
CTATCGAC | -0.288
CTGTACGC | 0.115
GCCGAAAA | 0.139
AGTCAACT | -0.141
CTAGTGCA | -0.0221
CAATCGGC | -0.101
ACAAATTC | 0.124
TGTGCCAA | 0.101
GCCAAACA | -0.0618
GCCGCACC | -0.0862
CCTGACAG | -0.164
CACAATAA | 0.111
CCAAGCTC | 0.0129
CAGTATTC | 0.159
CGCGGTAA | 0.0948
AGGGCCTC | -0.29
AAGGCTGT | -0.282
GGTCGAAA | -0.175
